From the supplement of paper PMC3334620
In all, about 33,000 sequences were measured (“E-score (-0.5 to 0.5)”: median about -0.016, highest 2% from about 0.31 on). The list shows a part of the results.

molecular target: Cst6 (UniProt P40535); test: PBM E-score (8-mer binding enrichment) (E-score (-0.5 to 0.5)); higher = stronger / more preferred TF binding; most listed sequences are background and not binding sites; conditions: protein concentration: 200 nM; construct: GST-DNA-binding domain
Protocol: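 Universal 'all 10-mer' protein binding microarrays (Agilent AMADID 015681) probed with GST-tagged S. cerevisiae TFs (full-length or DBD) made by in vitro transcription/translation (PURExpress), about 100-200 nM. Bound TF was detected with fluorescent anti-GST. Each ungapped 8-mer (which stands for itself and its reverse complement) is scored by the PBM enrichment score (E-score), a modified Wilcoxon-Mann-Whitney statistic from -0.5 to +0.5, computed with the Universal PBM Analysis Suite. Scale: above 0.35 generally sequence-specific binding.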

Sequence	PBM E-score
ACTCAACT	0.0493
TCCACAAA	0.119
AATCCTAA	-0.137
AGACAGTA	0.0472
AGGGGTAG	-0.359
GATTTTCA	0.229
GAAAGCTA	-0.229
AACGTCTG	0.0755
ACCCTACA	-0.0198
CCGCAGGC	0.0325
CATTCGAC	0.11
AAGCAGAA	0.0491
AATTGGGC	0.00688
CCTAGTGC	-0.0573
AAGCCACT	-0.0574
ACCCCTCC	-0.249
ACGAGACT	-0.0502
CTAGCAAA	0.0539
AAGGAGAT	0.0396
CGGGGCAC	-0.135
CCGGAATC	-0.294
CTACGGCC	-0.141
CGTTCCCC	-0.241
TGAATGCA	0.108
GGTAACGA	0.022

Sequence	PBM E-score
ACGTATGA	0.432
ACGATTTA	0.291
GGAATCCA	-0.12
GCTACTCC	-0.327
CTGTAAAA	0.148
ACAGTATA	0.129
AGCTCGAT	-0.0716
GATCTGGA	-0.0809
GAAGCTAA	-0.0787
GCTATCAA	0.0391
AGGTTATG	0.0904
CGCGCGTA	0.0723
AACAAATC	0.156
GTCTACCA	-0.0295
TGTCTCAA	-0.104
TATACCAA	0.159
AGTTCTCA	0.00496
CGGCGAAG	-0.0324
GTATTGAA	0.15
AAAAAATA	0.254
TCTGGCAA	-0.206
AGAACGCC	-0.0217
AATGTAAT	0.347
CCGCGTCC	0.099
GATTAACC	-0.185

Sequence	PBM E-score
AATGCAAA	0.239
GGCATGAA	0.134
ACACCCTG	-0.275
AATTCTCG	0.0737
CCCCCGTC	-0.348
GGCATCTA	0.102
GGACGTCA	0.468
ATTCTTAG	0.0174
ACAAACTA	0.0731
AATAGATA	0.303
GTCACGTA	0.224
CTCGCGAG	-0.0842
AATGTTGT	0.108
CTCTCCCC	-0.344
CGTCACGA	0.449
CGGCTACA	0.0164
GCTTTTCA	0.0237
AGGCACTC	-0.11
AATCCGGG	-0.22
ACCCTGTC	-0.281
AGTAAGTA	0.22
CGGTCCCA	-0.324
CCGGCGAA	-0.0664
CCGACACG	-0.12
ATGGGTGA	0.0883

Sequence	PBM E-score
CTCTCTAC	0.0611
GGGCACCA	-0.203
CGGTCGCA	-0.216
GTTCCACA	-0.157
CACGCCGA	-0.222
CGCAGGCA	-0.0708
ATACGTAA	0.463
CCAACCAG	-0.132
CAAATGGG	-0.158
GGAGCCAC	-0.209
ACTATTAT	0.182
ACTGGTTC	-0.0381
CCGCTGCG	-0.00591
ATGGTCTC	-0.0775
ATCGAGCA	-0.0198
ACACATGA	0.107
ATAGCGTG	-0.132
ATTGATTC	0.178
TCAACTGA	0.0881
AAATGGTG	0.194
AGGATAGC	0.0257
ACCGTCTG	0.00517
AACAGAAC	0.032
CACCTTAC	0.0625
AGGCTCTG	-0.106

Sequence	PBM E-score
TAGAAGGA	-0.285
TATCCAGA	-0.00054
CCGGGCCG	-0.14
ATGGAATG	-0.077
ACTGTATC	-0.0539
AACGCACC	-0.106
AAAAGGGG	-0.238
GGAAATAA	0.219
ATCTTCGC	0.0288
ATACAGTC	-0.143
CGCCATCA	-0.178
GGGGTGTA	-0.229
CGGGTTAA	-0.07
AGCACCTA	-0.227
CATGACGG	0.38
ATAGGTGC	-0.00875
TCGTAGAA	-0.0506
CATTACAG	0.0623
AGGCATAG	-0.0217
CCCCGGCA	-0.251
CGAGATAA	0.151
ACGCTCTC	-0.165
TCATATGA	0.248
GTAATTAA	0.188
GGTATCTA	0.0531

Sequence	PBM E-score
CTAACGTA	0.281
AGAGTGAC	0.135
CGTTGAGA	0.0363
AGGCTTTC	0.0839
ACAACTTG	-0.0384
CCTAATGA	0.0818
ACTATTGG	-0.185
CTATGTCA	0.392
ACACCACA	0.0618
ACCCTTGC	-0.229
ACGGCAAC	0.2
GATTATGC	-0.108
GATATAAA	0.211
AAGAACCT	-0.0978
CCCGAGCG	-0.168
AACCGGGT	-0.14
ACACAGAA	0.00996
CAGGTCAG	-0.119
GCAGGTCA	-0.21
AAGCAGCC	-0.0403
GGAAACGA	0.127
AACCGGTT	0.00038
AATGCCAT	0.196
TCCGCCGA	-0.078
AGAATTAA	0.0926

Sequence	PBM E-score
AAGTCATG	0.185
CACTGAGA	-0.134
AAATGAGA	0.056
ACACATTC	-0.0963
CGGCAGAG	-0.306
AATCGTTG	0.024
AGAGGGAA	-0.301
CCGCAACC	-0.0497
TGCATACA	0.187
CGGTACTA	-0.129
GTAGTCTA	0.0199
CTACTAAG	-0.0171
ATCCCGAA	0.00888
TAAATTGA	0.188
AATGTTCT	0.0905
AGAGCATG	-0.224
AGTAAACT	0.116
AAATAGGT	0.0285
GCGGACGA	0.0337
ACCTGAAG	-0.148
AGCGCGTA	0.177
CGCAAATC	-0.0243
